Results: PMC4336329 (PLoS ONE, 2015)
The campaign covered roughly 310,000 compounds. About 14,000 (4.5%) showed an effect of 50% or more. The effect is printed as a negative number. Some of the results follow.

molecular target: human ether-à-go-go-related gene (hERG) potassium channel (human, UniProt Q12809); assay: primary screen, population patch clamp on CHO cells stably expressing hERG
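Further: peak tail current of the secondary pulse compared with the same well before compound.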

Sequence of human ether-à-go-go-related gene (hERG) potassium channel (Q12809 whole entry, looked up): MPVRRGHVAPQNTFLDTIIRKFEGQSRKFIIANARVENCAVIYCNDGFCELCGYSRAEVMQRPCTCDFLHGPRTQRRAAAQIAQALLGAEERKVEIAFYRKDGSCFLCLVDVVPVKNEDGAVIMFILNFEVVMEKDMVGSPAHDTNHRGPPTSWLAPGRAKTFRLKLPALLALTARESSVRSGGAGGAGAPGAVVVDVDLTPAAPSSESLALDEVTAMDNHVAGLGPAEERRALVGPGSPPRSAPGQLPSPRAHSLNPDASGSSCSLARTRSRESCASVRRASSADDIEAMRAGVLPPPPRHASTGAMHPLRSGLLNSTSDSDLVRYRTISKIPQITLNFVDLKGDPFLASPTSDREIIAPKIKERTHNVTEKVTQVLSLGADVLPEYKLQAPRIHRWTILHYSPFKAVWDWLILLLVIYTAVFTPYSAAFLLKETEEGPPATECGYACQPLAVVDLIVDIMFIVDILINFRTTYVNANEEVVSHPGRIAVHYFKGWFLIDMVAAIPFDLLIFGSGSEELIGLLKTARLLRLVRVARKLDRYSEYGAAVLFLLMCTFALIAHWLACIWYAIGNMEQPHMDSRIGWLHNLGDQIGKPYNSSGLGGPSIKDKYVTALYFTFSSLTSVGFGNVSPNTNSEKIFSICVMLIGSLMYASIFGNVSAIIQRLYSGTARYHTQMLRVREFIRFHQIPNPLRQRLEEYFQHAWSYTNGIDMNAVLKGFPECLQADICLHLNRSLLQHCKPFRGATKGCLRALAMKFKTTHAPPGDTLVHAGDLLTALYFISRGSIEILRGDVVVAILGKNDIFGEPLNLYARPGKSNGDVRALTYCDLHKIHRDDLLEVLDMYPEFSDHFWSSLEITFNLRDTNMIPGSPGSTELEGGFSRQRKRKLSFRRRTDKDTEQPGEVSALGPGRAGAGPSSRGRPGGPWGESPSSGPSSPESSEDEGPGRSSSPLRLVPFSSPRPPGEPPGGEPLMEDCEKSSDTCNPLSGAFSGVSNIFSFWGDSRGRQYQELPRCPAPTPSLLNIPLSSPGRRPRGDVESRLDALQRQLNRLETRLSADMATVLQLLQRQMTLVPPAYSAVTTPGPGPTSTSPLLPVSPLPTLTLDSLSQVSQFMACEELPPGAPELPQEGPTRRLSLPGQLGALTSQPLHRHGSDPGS

| SMILES | hERG current change (%, negative = inhibition) at 10uM |
| --- | --- |
| C=C(C)CSc1nc2ccccc2[nH]1 | 9.1% |
| CCOC(=O)C1(CCc2ccccc2)CCN(C(=O)CN2CCOC2=O)CC1 | 14.6% |
| COc1ccc(C)cc1N(C)C(=O)c1coc(=O)c2ccccc12 | 12.9% |
| O=C(O)c1ccccc1C(=O)c1ccc(N2CCCC2)c([N+](=O)[O-])c1 | 13.8% |
| Cc1cc2c(cc1C)C(c1ccsc1)CC(=O)N2 (centres unmarked) | -11.5% |
| O=C(Cc1ccccc1)N1CCN(C(=O)c2cccs2)CC1 | 6.2% |
| CC1CCN(CC(=O)Nc2ccc(C(=O)N3CCCCC3)cc2)CC1.O=C(O)C(=O)O | 5.71% |
| CC12CCC(=O)N1C(C(=O)OCC(=O)Nc1ccc(C(F)(F)F)cc1)CS2 (centres unmarked) | -15.5% |
| O=C(O)c1cccc(OCCN2CCCC2=O)c1 | 11.5% |
| S=C(Nc1ccc2nc(-c3ccccn3)c(-c3ccccn3)nc2c1)N1CCOCC1 | -69.6% |
| O=C(OCC(=O)N(CCc1ccccc1)Cc1ccccc1)c1cc(S(=O)(=O)N2CCOCC2)ccc1F | -10.8% |
| Cc1ccc2nc(SCc3nc4cc(Cl)ccc4c(=O)[nH]3)[nH]c2c1 | -30.1% |
| O=C(Nc1ccccc1)c1cccc2c(Br)cccc12 | 14.9% |
| O=C(c1cc(Br)c(Br)s1)N1CCN(C/C=C/c2ccccc2)CC1 | 2% |
| Cc1ccc(NC(=O)CCN2CC(C)OC(C)C2)cc1.Cl (centres unmarked) | 3.19% |
| CCC(NC(=O)CCC(=O)N1CCN(S(=O)(=O)c2ccc(C)cc2)CC1)c1ccc(C)cc1 (centres unmarked) | -9.41% |
| Cc1ccccc1COc1cccc(/C=N/NC(=O)c2nnn(-c3nonc3N)c2C)c1 | 21.3% |
| O=C(Nc1ccccc1)OCCOc1ccccc1 | -17.8% |
| CCCCOc1cc(CC2CNC(=O)N2)ccc1OC (centres unmarked) | -2.83% |
| COC(=O)c1ccc(NC(=S)NC(=O)c2c(-c3ccccc3)noc2C)cc1 | 21.2% |
| Cc1ccc(OC(=O)c2c(C)nn(-c3ccccc3)c2C)cc1 | -5.09% |
| O=C(NCCc1cccs1)C1CCC(=O)N(CCc2cccc(F)c2)C1 (centres unmarked) | -26.1% |

| SMILES | hERG current change (%, negative = inhibition) at 10uM |
| --- | --- |
| COc1ccc(OC)c(NC(=O)NNC(=O)CCCOc2ccc(Cl)cc2C)c1 | -23.7% |
| CC(=O)c1cccc(S(=O)(=O)NCCC(=O)Nc2ccc(S(N)(=O)=O)cc2)c1 | 23.1% |
| COc1ccc(/C=C2\C(=O)NC(=S)N2C(=O)c2ccc(F)cc2)cc1 | 4.05% |
| N#CC1(NC(=O)COC(=O)c2ccccc2SCC(=O)N2CCCC2)CCCCC1 | -0.58% |
| O=C1C2C3C=CC(C3)C2C(=O)N1CNc1ccccn1 (centres unmarked) | 1.53% |
| C=C(C(=O)c1ccccc1)C(c1ccccc1)C(C)C(=O)c1ccccc1 (centres unmarked) | 6.55% |
| NC(=O)c1c(C(F)(F)F)cc(-c2ccccc2)nc1NCCO | 9.65% |
| O=C(N/N=C/c1cc([N+](=O)[O-])ccc1Cl)c1cnccn1 | 10.2% |
| O=C(Nc1ccc(-c2nnc3n2CCCCC3)cc1)c1ccco1 | 5.26% |
| COCc1c(Br)c(C)nc(OCC(=O)N/N=C/c2ccco2)c1C#N | -19.4% |
| Cc1nc(NC(=O)CCCC(=O)Nc2nc(C)c(C)s2)sc1C | -1.66% |
| CC(NC(=O)c1cccc(S(=O)(=O)N2CCCCCC2)c1)c1ccccc1 (centres unmarked) | -58.2% |
| Cc1noc(C)c1C(=O)Nc1nc(-c2cccs2)cs1 | -56.9% |
| COc1cccc(/C=N/NC(=S)NC2CC3CCC2C3)c1OC (centres unmarked) | 14.4% |
| Cc1c(C(=O)O)oc2ccc(S(=O)(=O)NCc3ccccc3)cc12 | 0.477% |
| COC(=O)c1cc(OC)c(OC)cc1NC(=O)CN1CCCCC1 | -2.84% |
| COc1c(C)cccc1C(=O)Nc1ccc(N2CCN(S(C)(=O)=O)CC2)cc1 | 5.12% |
| CC(C)C[C@H](NC(=O)c1[nH]cnc1C(=O)N[C@H](C)c1ccccc1)C(=O)OC(C)(C)C | -4.32% |
| O=C(Cn1c(=O)c2cccn2c2cccnc21)N1CCN(c2ccccc2F)CC1 | 1.79% |
| CSCC[C@H](NC(=O)Cc1c(C)c2cc3c4c(oc3cc2oc1=O)CCCC4)C(=O)O | 11.4% |
| O=[N+]([O-])c1ccc(N2CCCCCC2)c(S(=O)(=O)N2CCCCC2)c1 | -6.85% |
| O=C(/C=C\Nc1ccccn1)c1ccc(Cl)cc1 | 5.83% |
